Reference: article PMC6547688
These are yes or no findings as the source states them, for the method shown. Binding seen in cells or lysates may run through a third protein. Some binding calls cover weakened binding; strength is not graded here. For some assays here: Sequences can lack the tags named with a protein.

By UniProt entry, the sequences of proteins in these tests, tags left out. Where a name states a change or a piece, a line headed by the entry shows the natural chain unless it says otherwise.
UniProt Q13415: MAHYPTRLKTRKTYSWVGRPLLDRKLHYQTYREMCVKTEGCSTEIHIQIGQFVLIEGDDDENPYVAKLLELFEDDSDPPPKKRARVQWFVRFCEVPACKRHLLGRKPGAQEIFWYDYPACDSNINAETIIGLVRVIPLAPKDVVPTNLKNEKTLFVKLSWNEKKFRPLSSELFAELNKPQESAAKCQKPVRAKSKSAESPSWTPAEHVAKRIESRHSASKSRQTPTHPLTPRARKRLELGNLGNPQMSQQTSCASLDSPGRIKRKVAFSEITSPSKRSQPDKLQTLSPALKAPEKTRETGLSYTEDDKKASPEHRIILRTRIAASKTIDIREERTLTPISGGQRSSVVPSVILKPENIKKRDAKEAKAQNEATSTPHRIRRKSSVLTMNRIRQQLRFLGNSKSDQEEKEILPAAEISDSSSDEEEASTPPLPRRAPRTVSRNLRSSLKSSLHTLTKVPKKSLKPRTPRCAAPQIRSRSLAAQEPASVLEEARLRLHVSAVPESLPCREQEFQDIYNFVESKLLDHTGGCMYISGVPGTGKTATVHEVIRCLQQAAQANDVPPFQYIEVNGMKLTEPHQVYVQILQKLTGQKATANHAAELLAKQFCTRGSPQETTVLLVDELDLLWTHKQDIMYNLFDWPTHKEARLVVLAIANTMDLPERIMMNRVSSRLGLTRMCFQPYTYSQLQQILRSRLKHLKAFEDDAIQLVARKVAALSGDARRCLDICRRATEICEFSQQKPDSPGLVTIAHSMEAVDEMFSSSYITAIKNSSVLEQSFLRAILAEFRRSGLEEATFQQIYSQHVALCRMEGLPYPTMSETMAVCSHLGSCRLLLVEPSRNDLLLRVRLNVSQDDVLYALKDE

T1: ORC2 C-terminally tagged with Flag/HA (human), Q13416
T1 chain: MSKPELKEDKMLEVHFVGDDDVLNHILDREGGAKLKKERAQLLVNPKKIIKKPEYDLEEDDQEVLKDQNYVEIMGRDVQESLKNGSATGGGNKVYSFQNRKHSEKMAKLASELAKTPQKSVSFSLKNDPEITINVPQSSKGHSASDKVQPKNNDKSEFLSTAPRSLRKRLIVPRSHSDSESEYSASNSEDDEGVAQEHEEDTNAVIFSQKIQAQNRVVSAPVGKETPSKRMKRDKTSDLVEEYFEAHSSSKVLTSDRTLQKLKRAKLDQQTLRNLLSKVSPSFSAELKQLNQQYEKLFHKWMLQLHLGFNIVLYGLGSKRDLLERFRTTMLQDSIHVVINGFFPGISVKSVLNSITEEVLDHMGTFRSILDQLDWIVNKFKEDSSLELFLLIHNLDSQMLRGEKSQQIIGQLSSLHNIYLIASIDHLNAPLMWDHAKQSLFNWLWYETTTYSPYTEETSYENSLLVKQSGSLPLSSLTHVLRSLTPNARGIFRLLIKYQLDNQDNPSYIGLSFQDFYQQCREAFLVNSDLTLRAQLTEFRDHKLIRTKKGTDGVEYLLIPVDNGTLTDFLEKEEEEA


How the values were obtained:
[1] = molecular target: T1, ORC2 C-terminally tagged with Flag/HA …; test: co-IP; TAP-TAG final eluates (anti-Flag then anti-HA, peptide elution) of Flag/HA-tagged baits from HeLa S3 Dignam nuclear extracts, analysed by western blotting; conditions: remark: other sources report otherwise
ORC complex (human) = ORC complex (human) (UniProt Q13415); test: co-IP; transfected cells lysed in TK300 buffer (20 mM Tris-HCl pH 7.9, 300 mM KCl, 5 mM MgCl2, 10% glycerol, 0.5% NP-40); anti-Flag agarose beads, 4 h at 4 °C; western blotting

binding [1] | binding (ORC complex (human)) | Binder
binds | – | OBI1 (ORC-ubiquitin-ligase-1), endogenous, Q5W0B1 1-726 (enzyme) MAQTVQNVTLSLTLPITCHICLGKVRQPVICINNHVFCSICIDLWLKNNSQCPACRVPITPENPCKEIIGGTSESEPMLSHTVRKHLRKTRLELLHKEYEDEIDCLQKEVEELKSKNLSLESQIKTILDPLTLVQGNQNEDKHLVTDNPSKINPETVAEWKKKLRTANEIYEKVKDDVDKLKEANKKLKLENGGLVRENLRLKAEVDNRSPQKFGRFAVAALQSKVEQYERETNRLKKALERSDKYIEELESQVAQLKNSSEEKEAMNSICQTALSADGKGSKGSEEDVVSKNQGDSARKQPGSSTSSSSHLAKPSSSRLCDTSSARQESTSKADLNCSKNKDLYQEQVEVMLDVTDTSMDTYLEREWGNKPSDCVPYKDEELYDLPAPCTPLSLSCLQLSTPENRESSVVQAGGSKKHSNHLRKLVFDDFCDSSNVSNKDSSEDDISRSENEKKSECFSSPKTGFWDCCSTSYAQNLDFESSEGNTIANSVGEISSKLSEKSGLCLSKRLNSIRSFEMNRTRTSSEASMDAAYLDKISELDSMMSESDNSKSPCNNGFKSLDLDGLSKSSQGSEFLEEPDKLEEKTELNLSKGSLTNDQLENGSEWKPTSFFLLSPSDQEMNEDFSLHSSSCPVTNEIKPPSCLFQTEFSQGILLSSSHRLFEDQRFGSSLFKMSSEMHSLHNHLQSPWSTSFVPEKRNKNVNQSTKRKIQSSLSSASPSKATKS
– | binds | OBI1 Cys38Ser, catalytically inactive mutant (enzyme, UniProt Q5W0B1 1-726) MAQTVQNVTLSLTLPITCHICLGKVRQPVICINNHVFSSICIDLWLKNNSQCPACRVPITPENPCKEIIGGTSESEPMLSHTVRKHLRKTRLELLHKEYEDEIDCLQKEVEELKSKNLSLESQIKTILDPLTLVQGNQNEDKHLVTDNPSKINPETVAEWKKKLRTANEIYEKVKDDVDKLKEANKKLKLENGGLVRENLRLKAEVDNRSPQKFGRFAVAALQSKVEQYERETNRLKKALERSDKYIEELESQVAQLKNSSEEKEAMNSICQTALSADGKGSKGSEEDVVSKNQGDSARKQPGSSTSSSSHLAKPSSSRLCDTSSARQESTSKADLNCSKNKDLYQEQVEVMLDVTDTSMDTYLEREWGNKPSDCVPYKDEELYDLPAPCTPLSLSCLQLSTPENRESSVVQAGGSKKHSNHLRKLVFDDFCDSSNVSNKDSSEDDISRSENEKKSECFSSPKTGFWDCCSTSYAQNLDFESSEGNTIANSVGEISSKLSEKSGLCLSKRLNSIRSFEMNRTRTSSEASMDAAYLDKISELDSMMSESDNSKSPCNNGFKSLDLDGLSKSSQGSEFLEEPDKLEEKTELNLSKGSLTNDQLENGSEWKPTSFFLLSPSDQEMNEDFSLHSSSCPVTNEIKPPSCLFQTEFSQGILLSSSHRLFEDQRFGSSLFKMSSEMHSLHNHLQSPWSTSFVPEKRNKNVNQSTKRKIQSSLSSASPSKATKS
